In PMC4336329 (PLoS ONE, 2015):
Out of some 310,000 compounds screened, about 2,200 (0.71%) showed an effect of 50% or more. Effects have a minus sign here. This is one part of the list.

Molecular target: human ether-à-go-go-related gene (hERG) potassium channel (human, UniProt Q12809)
Test: primary screen, population patch clamp on CHO cells stably expressing hERG

Chain of human ether-à-go-go-related gene (hERG) potassium channel (Q12809 whole entry, looked up): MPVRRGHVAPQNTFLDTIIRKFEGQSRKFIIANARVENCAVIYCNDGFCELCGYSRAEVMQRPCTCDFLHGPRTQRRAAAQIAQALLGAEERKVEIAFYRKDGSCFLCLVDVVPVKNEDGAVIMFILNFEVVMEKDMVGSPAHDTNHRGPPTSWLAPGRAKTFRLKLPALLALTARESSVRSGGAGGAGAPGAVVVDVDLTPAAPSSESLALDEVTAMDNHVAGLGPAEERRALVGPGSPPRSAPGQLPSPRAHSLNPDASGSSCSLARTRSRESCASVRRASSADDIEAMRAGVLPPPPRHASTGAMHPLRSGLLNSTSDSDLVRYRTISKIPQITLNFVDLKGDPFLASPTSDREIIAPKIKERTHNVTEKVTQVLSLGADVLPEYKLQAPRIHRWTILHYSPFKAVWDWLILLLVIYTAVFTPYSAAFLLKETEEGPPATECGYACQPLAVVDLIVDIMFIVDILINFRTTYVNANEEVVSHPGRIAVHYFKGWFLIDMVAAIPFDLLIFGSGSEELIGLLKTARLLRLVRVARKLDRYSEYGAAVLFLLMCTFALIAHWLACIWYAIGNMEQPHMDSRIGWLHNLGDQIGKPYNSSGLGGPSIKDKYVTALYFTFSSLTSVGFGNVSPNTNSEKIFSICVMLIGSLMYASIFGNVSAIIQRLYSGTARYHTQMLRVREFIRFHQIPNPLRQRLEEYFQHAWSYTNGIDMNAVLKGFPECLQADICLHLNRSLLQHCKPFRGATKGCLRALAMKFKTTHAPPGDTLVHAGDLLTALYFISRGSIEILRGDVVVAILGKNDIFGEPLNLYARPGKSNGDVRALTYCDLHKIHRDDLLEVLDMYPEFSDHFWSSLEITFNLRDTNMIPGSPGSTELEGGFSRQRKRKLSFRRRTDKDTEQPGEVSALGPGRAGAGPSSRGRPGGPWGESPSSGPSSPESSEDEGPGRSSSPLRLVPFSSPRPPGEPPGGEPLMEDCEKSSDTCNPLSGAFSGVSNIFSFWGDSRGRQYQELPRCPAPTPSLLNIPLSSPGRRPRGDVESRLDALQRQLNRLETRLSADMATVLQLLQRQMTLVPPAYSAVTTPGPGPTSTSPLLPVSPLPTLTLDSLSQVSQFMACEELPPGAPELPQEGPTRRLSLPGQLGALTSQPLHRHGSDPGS

SMILES | hERG current change (%, negative = inhibition) at 1uM [%]
COc1ccc(CCNC(=O)CSc2nc(O)c(CC(C)C)c(=O)[nH]2)cc1OC | 2.77
CC1CCN(Cc2c(C(=O)N/N=C/c3ccc(C(C)(C)C)cc3)nnn2-c2nonc2N)CC1 | 19.3
N#Cc1nc(-c2ccco2)oc1NCCN1CCOCC1 | 8.01
COc1cccc(C(=O)CSc2nc3ccccc3n2CC(=O)N(C(C)C)C(C)C)c1 | 3.26
CCS(=O)(=O)/N=C(\N)c1ccccc1 | -0.633
CCOC(=O)CC(=O)Nc1ccn[nH]1 | 14.4
O=c1cc(-c2ccccc2)[nH]n2cnnc12 | 9.09
Brc1ccc(OCCCCN2CCCCC2)cc1 | -11.6
c1ccc2c(c1)c1ccccc1n1c(-c3ccc4c(c3)OCO4)nnc21 | 9.56
CCCCn1c(N)c(N(CCOC)C(=O)CN(C)S(=O)(=O)c2ccc(C)cc2)c(=O)[nH]c1=O | 14.3
COc1cccc(C(=O)Nn2c(-c3cccs3)nc3ccccc3c2=O)c1OC | 13.8
O=c1cc(CN2CCN(c3ccccc3F)CC2)c2cc3c(cc2o1)CCCC3 | 11.5
COC(=O)c1ccccc1NC(=O)COC(=O)CSc1nnc(N)s1 | 11.9
O=C(COC(=O)C1CC1)Nc1nc(-c2ccc(F)c(F)c2)cs1 | 16.8
CCOC(=O)CC(=O)CSc1ncnc2c1nnn2-c1ccc(OC)cc1 | -0.234
O=C(CCC(=O)Nc1ccccc1)N/N=C/C=C/c1ccccc1 | 23.9
COC(=O)c1c(C)nc(C)c(C(=O)OC)c1-c1ccc(OC)cc1 | 13.4
Cc1ccc(CN2CCN(CC(=O)N/N=C/c3ccc(C)o3)CC2)cc1 | -25.3
O=C(Nc1nnc(-c2ccccc2Cl)o1)c1cccnc1 | 6.37
CN(C)S(=O)(=O)N1CCN(CC(=O)Nc2ccc(Br)cc2)CC1 | -6.35
Cc1ccc(S(=O)(=O)N(C)/N=C/C=C/c2ccccc2)cc1 | 13.1
Cc1cc(F)ccc1S(=O)(=O)Nc1c(C)n(C)n(-c2ccccc2)c1=O | 15.4
O=C1Nc2ccccc2OC1CC(=O)N1CCOCC1 (stereo not drawn) | 3.88

SMILES | hERG current change (%, negative = inhibition) at 1uM [%]
Cc1cc(OC(C)C(=O)N2CCN(c3ccccc3)CC2)c2c(C)c(C)c(=O)oc2c1 (stereo not drawn) | 13.5
O=C(CN1C(=O)NC2(CCCCCCC2)C1=O)N1CCOCC1 | -3.6
COc1cc(C(F)(F)F)ccc1C(=O)NCCc1ccco1 | 5.79
CN(C)c1ccc(NC(=O)Nc2ccc3snnc3c2)cc1 | 10.2
COc1ccc(C(=O)NCc2ccco2)cc1S(=O)(=O)N1CCOCC1 | 6.32
Cc1nc(-c2cccc(NC(=O)c3ccco3)c2)cs1 | 10
COc1ccc(CNS(=O)(=O)c2cn(C)c(=O)n(C)c2=O)cc1 | 17.3
O=S(=O)(c1ccc(Cl)s1)N1CCc2ccccc2C1 | 10.7
CCc1ccc(C(C(=O)NC2CCCC2)N(CCOC)C(=O)CCC(=O)Nc2cc(C)on2)cc1 (stereo not drawn) | 8.68
CC(C)NC(=O)c1ccc(-c2ccc(Cl)c(C(F)(F)F)c2)o1 | 9.75
CC(Sc1nnnn1-c1ccccc1)C(=O)Nc1ccccc1-c1ccccc1 (stereo not drawn) | 5.44
Cc1cc(C)c(C)c(S(=O)(=O)N2CCN(C(=O)CNC(=O)c3ccco3)CC2)c1C | -0.97
O=C(Nc1ccc(Cl)cc1)N(Cc1nc2ccccc2c(=O)[nH]1)Cc1cccs1 | 0.353
CCOc1cc(N2CCOCC2)c(OCC)cc1NC(=O)c1ccc(C)cc1 | 17.1
Br.Clc1ccc2nc(CN3CCCc4ccccc43)cn2c1 | 12.6
O=C(CSc1nnc(NC(=O)c2ccco2)s1)Nc1ccccc1Br | 3.79
O=C(Nc1nnc(-c2ccccc2Cl)o1)c1ccco1 | 8.75
CC1Cc2ccccc2N1S(=O)(=O)c1cnc(Cl)c(Br)c1 (stereo not drawn) | 10.7
O=S(=O)(Nc1ccc(-c2cn3ccccc3n2)cc1)c1ccccc1 | 0.612
CCOC(=O)c1ccc(N2C(=O)CC(N3CCOCC3)C2=O)cc1 (stereo not drawn) | -1.93
CC(NC(=O)c1ccccc1Cl)c1nnc(SCC(=O)Nc2ccc(C(=O)O)cc2)n1C (stereo not drawn) | 10.2
COc1ccc(S(=O)(=O)N2CCC(C(=O)Nc3ccccc3C)CC2)c2cccnc12 | 5.5
